Among all 410,000 compounds or so, about 5,000 (1.2%) were called active. The shares of active, inactive and inconclusive entries below differ from those in the screen. The call rests on the fitted dose curve; in most records, active means well fitted inhibition curve with a large enough effect; inconclusive means small, poorly fitted or top-dose-only effect; inactive means no such curve, though single readings can be large or run the other way. Where the call is inconclusive, the potency comes from a doubtful curve fit.
assay: qHTS for Inhibitors of TGF-b; settings: HepG2 CAGA-GFP TGF-b/SMAD3 reporter, GFP fluorescence, 18 h, TGF-beta stimulated, 500 pg/mL final; series mostly up to 46.1 µM; activity, negative = inhibition: at the top concentration; further: nearly all actives have a fitted effect of over 65% in size
How it was run: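 Read-out: total well GFP (ex488/em500-530) summed from mean per-cell fluorescence. Cells: HEPG2 CAGA-GFP, 1% FBS DMEM, 18 h at 37 degrees C with 500 pg/mL final TGF-beta. Unstimulated wells served as the full-inhibition control; stimulated DMSO wells = 0%.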
On the % scale 0 is the no-effect control and ±100 the full control effect; potency means the concentration at half of the fitted maximal effect; tags describe the fitted curve by direction and shape.

SMILES | Potency | activity, negative = inhibition
NC(CO)c1cn([C@@H](CCC(=O)O)C(=O)N2CCNCC2)nn1 (stereo partly drawn) | inconclusive: 6.31 µM [inhibitor, full curve, poor fit] | –
Cc1ccc2cn[nH]c2c1NC(=S)NC(=O)c1ccccc1 | inconclusive: 0.708 µM [inhibitor, partial curve, poor fit] | –
Oc1c(CN2CCCCC2)cc(COCc2ccccc2)c2cccnc12 | inconclusive: 1.12 µM [inhibitor, full curve, poor fit] | –
O=c1c(Cc2ccc(Cl)cc2Cl)c(O)ccn1Cc1ccc(Cl)cc1 | active: 11.2 µM | –
CCC1(c2ccc(F)cc2)NC(=O)N(CC(=O)Nc2cccnc2Cl)C1=O (stereo not drawn) | – | inactive: 3.66%
CC1CC=CC2C1C(=O)N(Cc1ccccc1)C2c1ccc2ccccc2c1 (stereo not drawn) | active: 11.2 µM | –
CC1=C(C(=O)Nc2ccccc2)C(c2ccc(O)cc2)n2nc(-c3ccc(Cl)cc3)nc2N1 (stereo not drawn) | inconclusive: 17.8 µM [inhibitor, partial curve, poor fit] | –
CCc1ccn2cc(-c3cc(-c4ccccc4)no3)nc2c1 | inconclusive: 5.01 µM [inhibitor, full curve, poor fit] | –
CCN(CC)C(=O)C1=C(C)N(CCCOC)C(=O)C(CC(=O)NCCCN(C)C)C1 (stereo not drawn) | inconclusive: 17.8 µM [inhibitor, single point] | –
CCc1ccc(-c2nc(CS(=O)CC(=O)NC3CCCCCC3)c(C)o2)cc1 (stereo not drawn) | inconclusive: 7.94 µM [inhibitor, partial curve] | –
CCOC(=O)CSc1cccc2cccnc12 | inconclusive: 6.31 µM [inhibitor, full curve, poor fit] | –
COc1ccc(-c2cc(C(=O)N3CCCCCC3)c3ccccc3n2)cc1OC | – | inactive: -0.631%
Cc1cc(Cl)ccc1C(O)c1ncc(-c2cccc(C(F)(F)F)c2)[nH]1 (stereo not drawn) | inconclusive: 35.5 µM [inhibitor, single point] | –
COc1ccc(Br)cc1CNC(=O)CSc1n[nH]c(-c2ccccc2)n1 | inconclusive: 25.1 µM [inhibitor, single point] | –
CN(C)CCNC(=O)/C(=C/c1ccc(-c2ccc(Cl)cc2Cl)o1)NC(=O)c1ccccc1 | inconclusive: 35.5 µM [inhibitor, single point] | –
Cc1oc(-c2cccc(Br)c2)nc1Cn1c(SCc2cccc(F)c2)nc2cccnc21 | inconclusive: 0.251 µM [inhibitor, full curve, poor fit] | –
S=C(NCCc1ccccc1)Nc1ccc(Cl)cc1 | inconclusive: 22.4 µM [inhibitor, single point] | –
Cc1ccccc1/C=C\c1nc2ccccc2c(=O)[nH]1 | inconclusive: 20 µM [inhibitor, single point] | –
